Data reported in paper PMC4336329 (PLoS ONE, 2015).
The campaign covered roughly 310,000 compounds. About 14,000 (4.5%) showed an effect of 50% or more. Effects have a minus sign here. The list shows a part of the results.

molecular target: human ether-à-go-go-related gene (hERG) potassium channel (human, UniProt Q12809); assay: primary screen, population patch clamp on CHO cells stably expressing hERG
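Note: peak tail current of the secondary pulse compared with the same well before compound.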

Chain of human ether-à-go-go-related gene (hERG) potassium channel (Q12809 whole entry, looked up): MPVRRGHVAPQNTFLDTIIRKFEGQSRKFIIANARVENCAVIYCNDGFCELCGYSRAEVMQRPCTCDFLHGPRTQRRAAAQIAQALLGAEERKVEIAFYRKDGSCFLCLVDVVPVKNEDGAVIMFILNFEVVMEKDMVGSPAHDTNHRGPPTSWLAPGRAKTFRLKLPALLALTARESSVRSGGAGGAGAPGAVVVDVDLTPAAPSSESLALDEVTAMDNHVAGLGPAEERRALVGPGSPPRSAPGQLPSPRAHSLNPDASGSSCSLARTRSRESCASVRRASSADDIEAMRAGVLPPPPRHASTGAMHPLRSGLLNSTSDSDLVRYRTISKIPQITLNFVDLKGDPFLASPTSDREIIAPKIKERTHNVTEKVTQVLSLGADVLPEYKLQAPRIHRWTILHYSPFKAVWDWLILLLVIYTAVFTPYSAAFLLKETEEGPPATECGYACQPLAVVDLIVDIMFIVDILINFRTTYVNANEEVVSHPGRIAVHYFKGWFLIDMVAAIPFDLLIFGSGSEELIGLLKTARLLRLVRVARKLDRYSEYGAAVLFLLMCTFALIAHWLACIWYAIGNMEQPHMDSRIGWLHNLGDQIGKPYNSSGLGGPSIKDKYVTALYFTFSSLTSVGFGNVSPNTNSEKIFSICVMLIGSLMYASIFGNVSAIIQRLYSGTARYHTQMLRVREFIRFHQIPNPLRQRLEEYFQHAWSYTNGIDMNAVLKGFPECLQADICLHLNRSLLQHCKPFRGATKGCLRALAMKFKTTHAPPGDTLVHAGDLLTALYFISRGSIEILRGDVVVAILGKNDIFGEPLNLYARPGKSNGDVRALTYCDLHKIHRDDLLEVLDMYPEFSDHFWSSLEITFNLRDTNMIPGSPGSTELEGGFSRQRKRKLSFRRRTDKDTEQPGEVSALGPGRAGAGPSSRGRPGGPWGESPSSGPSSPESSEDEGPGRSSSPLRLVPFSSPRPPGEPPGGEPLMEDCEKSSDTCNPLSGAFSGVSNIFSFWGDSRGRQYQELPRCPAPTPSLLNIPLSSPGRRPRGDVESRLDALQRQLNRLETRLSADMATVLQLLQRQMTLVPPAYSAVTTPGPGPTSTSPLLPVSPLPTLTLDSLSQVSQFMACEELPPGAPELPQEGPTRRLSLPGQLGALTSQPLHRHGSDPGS

Compound	hERG current change (%, negative = inhibition) at 10uM
COCC(C)n1c(SCC(=O)N2CCc3ccccc3C2)nc2ccccc2c1=O (stereo not drawn)	-35.7%
CNc1ccccc1C(=O)OCC(=O)c1ccccc1	-2.57%
CN(CC(=O)Nc1cccc(F)c1)C(=O)c1cccnc1Sc1ccccc1Cl	-17.4%
Cn1ccnc1-c1nnn(-c2ccc(F)cc2)n1	3.12%
CCCCn1c(=O)c(C(=O)NCc2ccccc2Cl)c(O)c2ccccc21	26.1%
N/C(=N\OC(=O)c1ccccc1Br)c1cccc([N+](=O)[O-])c1	3.17%
N#CC1=C(N)OC2=C(C(=O)CCC2)[C@]12C(=O)N(CC(N)=O)c1ccccc12	4.73%
CCOC(=O)c1ccc(NC(=O)Nc2cccc(C)n2)cc1	22.5%
Cc1ccc(C(=O)NCc2ccccc2)c(F)c1F	13.2%
COc1cc(OC)cc(C(=O)N2CCN(c3ncccn3)CC2)c1	-19.3%
Cc1cc(O)cc(C)c1NS(=O)(=O)c1ccc2ccccc2c1	-9.59%
COc1ccc(C(=O)N[C@H](C(=O)N2CCN(c3ccccc3F)CC2)C(C)C)cc1	-3.37%
O=C(Nc1cccc(F)c1)Nc1ccnn1C1CCN(C(=O)c2cscn2)CC1	11.6%
CCOC(=O)C1(CC)NC(c2ccc(OC)c(OC)c2)C2C(=O)N(c3cccc(C(C)=O)c3)C(=O)C21 (stereo not drawn)	16.5%
CC1NC(=S)N(C2CCCCC2)C1=O (stereo not drawn)	24.6%
O=C(CSc1oc(-c2ccco2)nc1S(=O)(=O)c1ccccc1)NCC1CCCO1 (stereo not drawn)	-2.1%
COc1cc(OC)cc(N(C(=O)c2ccco2)C(C(=O)NC2CCCC2)c2ccc(N3CCOCC3)cc2)c1 (stereo not drawn)	-11.9%
CCCC(=O)Nc1cccn(Cc2ccccc2Br)c1=O	-6.57%
COC(=O)c1cccc(NC(=O)c2ccc3c(c2)C(=O)N(Cc2cccnc2)C3=O)c1	-24.1%
CNC(=O)C12CC3CC(CC(Cl)(C3)C1)C2	-10.9%
CC(C)C[C@@H](CN(C)N=O)N(C[C@H](Cc1ccccc1)N(CCc1ccccc1)N=O)N=O.[Na+]	-21.8%
CCCCc1c(O)nc(SCC(=O)N2CCOCC2)n(-c2ccccc2OC)c1=O	7.27%

Compound	hERG current change (%, negative = inhibition) at 10uM
CC(C)(C)C1=CC(=Nc2ccccc2N)C=C(C(C)(C)C)C1=O	14.7%
CCC(Sc1nnc(C)s1)C(=O)Nc1nccs1 (stereo not drawn)	-5.54%
Cc1nc2ccccn2c1C(=O)CSc1ccccc1	-19%
COc1ccccc1C(C#N)N1N=C(C)CC1c1ccccc1 (stereo not drawn)	1.69%
CCOC(=O)C1CCCN(C(=O)c2sc3nc(C)nc(N(CC)CC)c3c2C)C1 (stereo not drawn)	-25%
COc1ccccc1CNS(=O)(=O)c1ccc(-n2cccn2)cc1	6.96%
CCn1cc(CN2CCc3c([nH]c4ccccc34)C2c2ccc(F)c(OC)c2)c(C)n1 (stereo not drawn)	6.94%
COc1ccc(CC(=O)Nc2ccc(OC)c(NC(=O)c3ccco3)c2)cc1	-28.1%
CN1C(=O)NC(c2ccccc2)C2=C1CN(c1ccc3ccccc3c1)C2=O (stereo not drawn)	8.31%
CC(NC(=O)C1CCCN(S(=O)(=O)c2cccs2)C1)c1ccccc1 (stereo not drawn)	6.73%
S=c1nc(-c2ccccc2)[nH]n1-c1ccccc1	8.01%
C(=N\Nc1ncnc2sc3c(c12)CCC3)/c1ccncc1	-22.5%
CCOC(=O)c1c(C)c(C(=O)NCC2CCCO2)c(C)n1C (stereo not drawn)	6.6%
Cc1cc(NC(=O)CCC(=O)N(Cc2ccco2)C(C(=O)NC2CCCC2)c2ccccc2)no1 (stereo not drawn)	-18.3%
CCOC(=O)c1ccc(NCCc2ccc(OC)c(OC)c2)c(N)c1	-31.4%
O=C(/C=C/c1ccc([N+](=O)[O-])cc1)NNC(=O)C1CC1	1.2%
O=C(C[n+]1cc(Br)cc2ccccc21)c1ccccc1.[Br-]	-21.7%
CN(C)c1ccc(C(O)P(=O)(OC2CCCCC2)OC2CCCCC2)cc1 (stereo not drawn)	0.168%
Cc1nn(-c2ccccc2)c(C)c1NS(=O)(=O)c1ccccc1	-2.28%
Cc1ccc(NC(=O)CNC(=O)c2ccco2)cc1	19.6%
O=C(NCC1CCCCC1)c1ccc(F)c(S(=O)(=O)N2CCOCC2)c1	-10.2%
COC(=O)C1C(=O)C(C(=O)/C=C/c2ccccc2)C(=O)CC1(C)C (stereo not drawn)	23.2%

Compound	hERG current change (%, negative = inhibition) at 10uM
O=C(O)c1ccc2c(c1)CCCN2	13.4%
COc1ccc(CN(CC(=O)NCc2ccc(F)cc2)C(=O)c2ccco2)cc1	-61.7%
CCC(C)(CCNC(=O)Cc1ccccc1)c1ccccc1OC (stereo not drawn)	-21%
O=C(O)C(=O)O.O=C(c1ccco1)N1CCN(CC2CC3C=CC2C3)CC1 (stereo not drawn)	-10.8%
CC(=O)Nc1ccc(S(=O)(=O)NCCC(=O)NCCc2ccc(F)cc2)cc1	7.64%
COc1cc(C(=O)Nc2nc(N)n(-c3ccccc3)n2)cc(OC)c1OC	-5.34%
CCN(CC)c1nc(C)c(C(=S)Nc2cc([N+](=O)[O-])ccc2Cl)s1	25.2%
O=[N+]([O-])c1cccc(/C=N/N2CCN(Cc3ccccc3)CC2)c1	-0.159%
O=C(O)CN1CCN(Cc2ccc(Cl)cc2)C1=O	-12.9%
COC(=O)[C@H](C)[C@H]1C[C@]1(C)[C@H](NC(=O)OCc1ccccc1)c1ccccc1	-6.4%
COCCN(C(=O)COC(=O)CCS(=O)(=O)c1ccccc1)c1c(N)n(Cc2ccccc2)c(=O)[nH]c1=O	-11.1%
CCOC(=O)C1=C(C)N(c2ccccc2)C(=O)/C1=C\c1ccc(O)c(OC)c1	1.82%
CCCn1c(O)c(CN2CCCC(C)C2)c(C)c(C#N)c1=O (stereo not drawn)	3.04%
O=S(=O)(NCc1ccco1)c1ccc2c(c1)Cc1ccccc1-2	7.28%
COCc1cc(C)nc2sc(C(=O)N3CCCCC3)c(N)c12	0.926%
COc1cccc(-c2noc(C3CCCN(C(=O)c4ccc(F)cc4)C3)n2)c1 (stereo not drawn)	0.304%
Cc1ccc(NC(=O)c2ccc(C)c(S(=O)(=O)N3CCOCC3)c2)nc1	-6.9%
COc1ccc(Cn2nnnc2C(c2cc3cc(C)ccc3[nH]c2=O)N2CCN(C)CC2)cc1 (stereo not drawn)	-24.4%
CC(C)Cc1ccc(C#N)c(SCC(N)=O)n1	-11.8%
CC(=O)c1ccc2c3c(cccc13)C(=O)N(CCc1ccccc1)C2=O	13.4%
O=C(CN1C(=O)CCSc2ccc(S(=O)(=O)N3CCCC3)cc21)Nc1ccccc1Cl	21.8%
O=C(c1cc(F)ccc1F)C1CCCN(C(=O)c2ccc3nccnc3c2)C1 (stereo not drawn)	-50.2%

Compound	hERG current change (%, negative = inhibition) at 10uM
O=C(OCCCCN1C(=O)c2ccccc2C1=O)c1ccc(S(=O)(=O)N2CCCC2)cc1	17.3%
Cc1ccc(NC(=S)NCc2ccc3c(c2)OCO3)cc1C	0.695%
CC(OC(=O)c1cc(S(=O)(=O)Nc2ccc(F)cc2)ccc1Cl)C(=O)Nc1ccc2c(c1)OCCO2 (stereo not drawn)	1.47%
CCCn1c(=O)[nH]c(=O)c2c(C(F)(F)F)cc(-c3ccc(C)cc3)nc21	28.2%
O=C(CCCc1ccccc1)Nc1ccccc1[N+](=O)[O-]	2.99%
COc1cc(-c2noc(C3CCCN(C(=O)c4ccccc4)C3)n2)cc(OC)c1OC (stereo not drawn)	-8.12%
CCCc1nc(SCC(=O)NNC(=O)c2ccc(OC)cc2)c2ccccc2n1	-5.87%
c1ccc(-c2ccc3[nH]ccc3c2)cc1	-6.46%
O=C(N/N=C/C1CCCCC1)c1cc(Cl)ccc1O	-18.5%
O=C(CNC(=O)c1ccc(S(=O)(=O)N2CCCC2)cc1)N/N=C/c1ccc(F)cc1	3.89%
O=C1CN(C(=O)c2ccccc2C(=O)O)c2ccccc2N1	17.2%
CC(=O)c1cccc(NC(=O)CN2C(=O)c3ccccc3C2=O)c1	14.3%
O=C(CCC(=O)N1CCN(c2ccc(F)cc2)CC1)N1CCN(c2ccc(F)cc2)CC1	-43.9%
CC(=O)c1cc2c(C)cc(=O)oc2cc1O	1.77%
O=C(CCN1C(=O)/C(=C\c2ccccc2)SC1=S)N1CCOCC1	16.3%
CCCCOC(=O)C(C)Oc1ccc(=O)n(-c2ccccc2)n1 (stereo not drawn)	4.44%
O=C(NC1CCN(Cc2ccccc2)CC1)C(NS(=O)(=O)c1cccc2nsnc12)c1ccccc1 (stereo not drawn)	-44.6%
COc1ccc(OC)c(NC(=O)CCNC(=O)c2ccco2)c1	19.3%
O=[N+]([O-])c1ccc(Nc2ccc3ccccc3c2)nc1	-8.76%
CCn1c(COc2cccc(C)c2C)nnc1SCC(=O)N1CCN(c2ccc(OC)cc2)CC1	-5.31%
O=C(NNS(=O)(=O)c1ccccc1[N+](=O)[O-])c1cccc(Br)c1	-6.26%
